Measured values from paper PMC9911399, “Two distinct binding modes provide the RNA-binding protein RbFox with extraordinary sequence specificity”.
Numbering of substitutions follows the chain as printed; changes in the protein carry UniProt numbers. Some of the results follow.

T1: RBFOX1 RRM RbFoxmut (Fox-RRM*) (Homo sapiens, UniProt Q9NWB1 109-208, R118D;E147R;N151S;E152T)
T1 sequence: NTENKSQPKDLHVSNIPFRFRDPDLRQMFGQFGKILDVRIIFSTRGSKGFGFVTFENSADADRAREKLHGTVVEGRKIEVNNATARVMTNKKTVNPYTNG

B1: CUUCAAA (DNA:RNA)
RNA: GGGAGACCGGAAUUCAGAUUGUCCCUUCAAAUUAAAUCCCGUCGUAGCCACCA
DNA 1: CAATCTGAATTCCGGTCTCCC
DNA 2: TGGTGGCTACGACGGGATT
B2: ACCAUUA (DNA:RNA)
RNA: B1 RNA with C25A, U26C, U27C, C28A, A29U, A30U
DNA 1: CAATCTGAATTCCGGTCTCCC
DNA 2: TGGTGGCTACGACGGGATT
B3: CGCAAAU (DNA:RNA)
RNA: B1 RNA with U26G, U27C, C28A, A31U
DNA 1: CAATCTGAATTCCGGTCTCCC
DNA 2: TGGTGGCTACGACGGGATT
B4: AAAAGAG (DNA:RNA)
RNA: B1 RNA with C25A, U26A, U27A, C28A, A29G, A31G
DNA 1: CAATCTGAATTCCGGTCTCCC
DNA 2: TGGTGGCTACGACGGGATT
B5: CUAUUAC (DNA:RNA)
RNA: B1 RNA with U27A, C28U, A29U, A31C
DNA 1: CAATCTGAATTCCGGTCTCCC
DNA 2: TGGTGGCTACGACGGGATT
B6: GACCGGC (DNA:RNA)
RNA: B1 RNA with C25G, U26A, U27C, A29G, A30G, A31C
DNA 1: CAATCTGAATTCCGGTCTCCC
DNA 2: TGGTGGCTACGACGGGATT
B7: AUAUUCG (DNA:RNA)
RNA: B1 RNA with C25A, U27A, C28U, A29U, A30C, A31G
DNA 1: CAATCTGAATTCCGGTCTCCC
DNA 2: TGGTGGCTACGACGGGATT
B8: GAUAUAU (DNA:RNA)
RNA: B1 RNA with C25G, U26A, C28A, A29U, A31U
DNA 1: CAATCTGAATTCCGGTCTCCC
DNA 2: TGGTGGCTACGACGGGATT
B9: CUCGUGG (DNA:RNA)
RNA: B1 RNA with U27C, C28G, A29U, A30G, A31G
DNA 1: CAATCTGAATTCCGGTCTCCC
DNA 2: TGGTGGCTACGACGGGATT
B10: AGGGUAC (DNA:RNA)
RNA: B1 RNA with C25A, U26G, U27G, C28G, A29U, A31C
DNA 1: CAATCTGAATTCCGGTCTCCC
DNA 2: TGGTGGCTACGACGGGATT
B11: CUUGCUG (DNA:RNA)
RNA: B1 RNA with C28G, A29C, A30U, A31G
DNA 1: CAATCTGAATTCCGGTCTCCC
DNA 2: TGGTGGCTACGACGGGATT
B12: ACUACUU (DNA:RNA)
RNA: B1 RNA with C25A, U26C, C28A, A29C, A30U, A31U
DNA 1: CAATCTGAATTCCGGTCTCCC
DNA 2: TGGTGGCTACGACGGGATT
B13: GUAUUGU (DNA:RNA)
RNA: B1 RNA with C25G, U27A, C28U, A29U, A30G, A31U
DNA 1: CAATCTGAATTCCGGTCTCCC
DNA 2: TGGTGGCTACGACGGGATT
B14: GAGGACA (DNA:RNA)
RNA: B1 RNA with C25G, U26A, U27G, C28G, A30C
DNA 1: CAATCTGAATTCCGGTCTCCC
DNA 2: TGGTGGCTACGACGGGATT
B15: CACAUUC (DNA:RNA)
RNA: B1 RNA with U26A, U27C, C28A, A29U, A30U, A31C
DNA 1: CAATCTGAATTCCGGTCTCCC
DNA 2: TGGTGGCTACGACGGGATT
B16: UCGCUGG (DNA:RNA)
RNA: B1 RNA with C25U, U26C, U27G, A29U, A30G, A31G
DNA 1: CAATCTGAATTCCGGTCTCCC
DNA 2: TGGTGGCTACGACGGGATT
B17: UAGCGAU (DNA:RNA)
RNA: B1 RNA with C25U, U26A, U27G, A29G, A31U
DNA 1: CAATCTGAATTCCGGTCTCCC
DNA 2: TGGTGGCTACGACGGGATT
B18: GAAAUCC (DNA:RNA)
RNA: GGGAGACCGGAAUUCAGAUUGUCCGAAAUCCUUAAAUCCCGUCGUAGCCACCA
DNA 1: CAATCTGAATTCCGGTCTCCC
DNA 2: TGGTGGCTACGACGGGATT
B19: GCAUGGG (DNA:RNA)
RNA: B18 RNA with A26C, A28U, U29G, C30G, C31G
DNA 1: CAATCTGAATTCCGGTCTCCC
DNA 2: TGGTGGCTACGACGGGATT
B20: CCAAGUG (DNA:RNA)
RNA: B18 RNA with G25C, A26C, U29G, C30U, C31G
DNA 1: CAATCTGAATTCCGGTCTCCC
DNA 2: TGGTGGCTACGACGGGATT

These binders were tested against T1, RBFOX1 RRM RbFoxmut (Fox-RRM*) (assay: EMSA; HiTS-Eq, 1 nM pool, 10 min; buffer printed only for the single-RNA assays: 10 mM Tris pH 7.5, 150 mM NaCl, 3.4 mM EDTA, 0.001% NP-40, 30 C). Conditions: tags: His6 N-terminal (pET28a); label: 5' 32P.
Summary of the method: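 Relative association constants, normalised to the cognate motif, were derived by comparing read counts of each RNA species with those of the control reaction. The RNA sequenced was the free fraction, separated by 8% native PAGE after a 10 min equilibration in 50 µL of 1 nM 5′-radiolabelled RNA (7 randomized nucleotides) with increasing concentrations of purified wild-type or mutant RbFox RRM.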

| Binder | binding signal |
| --- | --- |
| B1 | 0.0963 KA relative to UGCAUGU |
| B2 | 0.125 KA relative to UGCAUGU |
| B3 | 0.086 KA relative to UGCAUGU |
| B4 | 0.0968 KA relative to UGCAUGU |
| B5 | 0.121 KA relative to UGCAUGU |
| B6 | 0.104 KA relative to UGCAUGU |
| B7 | 0.123 KA relative to UGCAUGU |
| B8 | 0.109 KA relative to UGCAUGU |
| B9 | 0.0647 KA relative to UGCAUGU |
| B10 | 0.106 KA relative to UGCAUGU |
| B11 | 0.128 KA relative to UGCAUGU |
| B12 | 0.114 KA relative to UGCAUGU |
| B13 | 0.309 KA relative to UGCAUGU |
| B14 | 0.0433 KA relative to UGCAUGU |
| B15 | 0.0841 KA relative to UGCAUGU |
| B16 | 0.11 KA relative to UGCAUGU |
| B17 | 0.0684 KA relative to UGCAUGU |
| B18 | 0.0537 KA relative to UGCAUGU |
| B19 | 0.322 KA relative to UGCAUGU |
| B20 | 0.119 KA relative to UGCAUGU |
